These results are taken from article PMC10530723, “The Conserved Chromatin Remodeler SMARCAD1 Interacts with TFIIIC and Architectural Proteins in Human and Mouse” (Genes, 2023).

Amino acid sequences for entries named in this document (tags omitted).
UniProt Q9CW03: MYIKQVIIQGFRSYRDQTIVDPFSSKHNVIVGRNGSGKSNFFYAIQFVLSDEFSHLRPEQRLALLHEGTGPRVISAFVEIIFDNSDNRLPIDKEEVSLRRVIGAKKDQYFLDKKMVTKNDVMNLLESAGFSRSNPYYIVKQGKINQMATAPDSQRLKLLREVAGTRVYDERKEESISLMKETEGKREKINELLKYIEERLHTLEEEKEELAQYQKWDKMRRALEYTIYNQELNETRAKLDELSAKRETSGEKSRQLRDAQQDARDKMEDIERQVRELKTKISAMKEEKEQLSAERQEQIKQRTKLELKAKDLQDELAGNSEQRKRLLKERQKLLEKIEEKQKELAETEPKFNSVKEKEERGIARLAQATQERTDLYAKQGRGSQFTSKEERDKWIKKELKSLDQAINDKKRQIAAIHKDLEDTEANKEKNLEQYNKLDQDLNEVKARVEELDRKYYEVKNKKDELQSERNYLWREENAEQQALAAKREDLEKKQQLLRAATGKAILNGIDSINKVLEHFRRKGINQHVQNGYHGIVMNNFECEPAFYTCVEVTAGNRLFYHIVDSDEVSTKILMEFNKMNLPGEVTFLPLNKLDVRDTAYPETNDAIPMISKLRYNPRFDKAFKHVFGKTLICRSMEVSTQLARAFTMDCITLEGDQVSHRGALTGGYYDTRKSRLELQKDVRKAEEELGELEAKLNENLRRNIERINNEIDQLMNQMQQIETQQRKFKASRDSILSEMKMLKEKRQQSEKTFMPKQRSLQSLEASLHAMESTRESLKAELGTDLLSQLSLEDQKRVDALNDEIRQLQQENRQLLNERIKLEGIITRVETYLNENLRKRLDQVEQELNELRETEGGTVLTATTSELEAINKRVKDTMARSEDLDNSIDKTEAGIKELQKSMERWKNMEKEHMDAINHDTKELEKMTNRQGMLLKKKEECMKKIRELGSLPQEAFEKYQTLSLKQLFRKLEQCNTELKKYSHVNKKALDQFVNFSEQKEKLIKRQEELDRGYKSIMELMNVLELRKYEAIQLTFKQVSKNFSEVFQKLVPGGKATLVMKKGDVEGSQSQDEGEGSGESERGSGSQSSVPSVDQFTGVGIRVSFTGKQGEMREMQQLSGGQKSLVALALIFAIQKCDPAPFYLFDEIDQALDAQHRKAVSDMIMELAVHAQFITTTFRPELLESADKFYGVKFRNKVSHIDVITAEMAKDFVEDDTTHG
UniProt Q8K284: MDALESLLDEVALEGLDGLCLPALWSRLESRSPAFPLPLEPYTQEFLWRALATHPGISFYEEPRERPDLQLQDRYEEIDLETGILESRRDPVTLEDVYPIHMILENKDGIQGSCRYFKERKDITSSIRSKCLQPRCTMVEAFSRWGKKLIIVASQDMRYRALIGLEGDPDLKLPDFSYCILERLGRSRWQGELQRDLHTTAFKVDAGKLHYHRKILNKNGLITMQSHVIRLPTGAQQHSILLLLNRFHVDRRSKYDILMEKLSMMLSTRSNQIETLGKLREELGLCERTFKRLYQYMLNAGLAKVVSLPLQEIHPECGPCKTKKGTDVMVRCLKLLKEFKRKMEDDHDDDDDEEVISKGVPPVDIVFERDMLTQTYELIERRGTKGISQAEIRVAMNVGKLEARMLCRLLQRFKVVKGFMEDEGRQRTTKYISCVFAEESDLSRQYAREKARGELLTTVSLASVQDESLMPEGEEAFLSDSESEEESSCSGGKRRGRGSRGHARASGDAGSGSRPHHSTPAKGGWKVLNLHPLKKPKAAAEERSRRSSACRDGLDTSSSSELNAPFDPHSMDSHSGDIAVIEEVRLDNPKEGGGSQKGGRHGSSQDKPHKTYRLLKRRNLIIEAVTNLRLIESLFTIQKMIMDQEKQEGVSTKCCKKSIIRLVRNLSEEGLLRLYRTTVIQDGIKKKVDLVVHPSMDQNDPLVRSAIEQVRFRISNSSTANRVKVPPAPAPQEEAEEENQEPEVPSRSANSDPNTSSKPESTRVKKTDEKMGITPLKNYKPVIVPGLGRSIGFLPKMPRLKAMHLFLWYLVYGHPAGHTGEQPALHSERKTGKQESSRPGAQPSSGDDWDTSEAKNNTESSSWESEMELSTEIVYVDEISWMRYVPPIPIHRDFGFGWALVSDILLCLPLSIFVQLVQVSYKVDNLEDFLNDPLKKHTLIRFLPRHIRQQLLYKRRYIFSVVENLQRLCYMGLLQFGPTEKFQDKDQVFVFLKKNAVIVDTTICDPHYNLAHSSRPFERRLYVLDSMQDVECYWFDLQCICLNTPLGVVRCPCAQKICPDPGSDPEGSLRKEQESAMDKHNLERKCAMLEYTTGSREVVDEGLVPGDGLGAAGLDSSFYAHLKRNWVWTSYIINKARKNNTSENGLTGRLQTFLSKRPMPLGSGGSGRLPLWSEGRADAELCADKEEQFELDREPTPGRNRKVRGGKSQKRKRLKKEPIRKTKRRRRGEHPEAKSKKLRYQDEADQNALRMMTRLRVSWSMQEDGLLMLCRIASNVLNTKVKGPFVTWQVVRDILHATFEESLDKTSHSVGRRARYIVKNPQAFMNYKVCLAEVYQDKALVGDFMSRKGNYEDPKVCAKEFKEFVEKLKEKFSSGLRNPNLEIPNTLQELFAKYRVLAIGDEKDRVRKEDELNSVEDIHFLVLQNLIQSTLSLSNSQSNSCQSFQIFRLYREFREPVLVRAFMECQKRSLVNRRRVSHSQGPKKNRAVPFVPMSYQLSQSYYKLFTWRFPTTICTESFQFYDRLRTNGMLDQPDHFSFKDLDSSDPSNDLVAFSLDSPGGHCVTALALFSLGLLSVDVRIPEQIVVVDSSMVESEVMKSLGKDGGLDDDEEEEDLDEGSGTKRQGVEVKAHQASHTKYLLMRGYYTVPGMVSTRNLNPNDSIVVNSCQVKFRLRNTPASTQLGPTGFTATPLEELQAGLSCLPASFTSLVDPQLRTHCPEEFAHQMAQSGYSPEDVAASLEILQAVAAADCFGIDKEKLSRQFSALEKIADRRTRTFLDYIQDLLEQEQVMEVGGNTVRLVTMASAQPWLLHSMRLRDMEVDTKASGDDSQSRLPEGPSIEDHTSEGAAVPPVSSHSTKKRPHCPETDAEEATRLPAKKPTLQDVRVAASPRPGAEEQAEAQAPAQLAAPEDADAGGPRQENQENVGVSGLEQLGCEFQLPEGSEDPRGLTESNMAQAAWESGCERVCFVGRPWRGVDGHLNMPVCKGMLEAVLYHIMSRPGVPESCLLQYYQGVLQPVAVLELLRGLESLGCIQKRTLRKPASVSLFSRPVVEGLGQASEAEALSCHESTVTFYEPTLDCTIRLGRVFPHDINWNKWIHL

First the molecules themselves.
T1: SMARCAD1 (endogenous, mouse ESCs) (mouse (endogenous in 46C ESCs)) (UniProt Q04692)
T1 sequence: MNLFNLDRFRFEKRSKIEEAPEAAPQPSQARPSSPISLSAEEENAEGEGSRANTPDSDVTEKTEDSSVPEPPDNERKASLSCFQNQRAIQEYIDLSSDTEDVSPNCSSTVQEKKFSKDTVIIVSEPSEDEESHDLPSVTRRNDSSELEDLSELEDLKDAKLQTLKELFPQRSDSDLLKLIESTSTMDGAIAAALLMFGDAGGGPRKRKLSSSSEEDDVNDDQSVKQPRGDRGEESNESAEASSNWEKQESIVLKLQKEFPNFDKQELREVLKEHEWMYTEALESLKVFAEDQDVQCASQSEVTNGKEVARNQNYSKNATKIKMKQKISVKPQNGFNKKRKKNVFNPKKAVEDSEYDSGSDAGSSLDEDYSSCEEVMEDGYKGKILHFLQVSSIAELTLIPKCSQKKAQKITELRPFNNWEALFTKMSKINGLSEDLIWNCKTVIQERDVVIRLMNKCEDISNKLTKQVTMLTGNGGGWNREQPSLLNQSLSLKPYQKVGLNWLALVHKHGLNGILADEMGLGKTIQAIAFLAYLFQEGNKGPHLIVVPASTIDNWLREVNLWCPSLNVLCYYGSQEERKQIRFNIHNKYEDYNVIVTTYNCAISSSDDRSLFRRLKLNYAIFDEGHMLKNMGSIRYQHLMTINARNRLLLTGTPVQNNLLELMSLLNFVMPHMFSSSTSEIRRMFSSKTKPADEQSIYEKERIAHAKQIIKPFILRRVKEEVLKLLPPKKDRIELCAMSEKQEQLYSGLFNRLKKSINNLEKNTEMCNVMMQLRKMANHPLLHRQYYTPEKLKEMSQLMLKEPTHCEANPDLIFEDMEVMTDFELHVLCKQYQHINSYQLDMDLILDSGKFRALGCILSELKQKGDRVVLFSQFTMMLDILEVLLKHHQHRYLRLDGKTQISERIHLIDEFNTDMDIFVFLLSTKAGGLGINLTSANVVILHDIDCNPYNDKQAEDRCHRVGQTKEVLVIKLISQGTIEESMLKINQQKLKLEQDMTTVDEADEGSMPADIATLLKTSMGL

B1: TFIIIC102 (endogenous, mouse ESCs) (protein, UniProt Q3TMP1 1-882)
chain: MSGFSPELIDYLEGKISFEEFERRREERKTREKKSVQEKGKSSPKENPDDSEVPSSSGIDSAKSQDKDANEGETSDGVSKSVHKVFASMLGETEDDEEEEEEEEEEETAEQPTAGDVFVLEMVLNRETKKMMKEKRPRSKLPRALRGLMGEANIRFARGEHEEAILMCMEIIRQAPLAYEPFSTLAMIYEDQGDMEKSLQFELIAAHLNPSDTEEWVRLAEMSLEQDNIKQAIFCYTKALKYEPTNVRYLWERSSLYEQMGDHKMAMDGYRRILNLLSPSDGERFMQLARDMAKSYYEANDSASAINIIEEAFSKHQGLVSMEDVNIAAELYISNKQYDKALEVITDFSGIILEKETLEEGTSEENKAAETVTCSIPDSVPIDITVKLMVCLVHLNILEPLNPLLTTLVEQNPEDMGDLYLDVAEAFLDVGEYNSALPLLSALVCSERYNLAVVWLRHAECLKALGYMERAAESYSKVVDLAPLHLDARISLSILQQQLGRPEKALEALEPMYDPDTLAQDANAAQQELKLLLHRSTLLFSQGKMYGYLDTLLTMLAMLLKVAMNRAQVCLISSSKSGERHLYLIKVSRDKISDNNEQETSNYDAKAIFAVLTSVLPKEDWWNLLLKAIYTLSDLARFQEAELLVDSSLEYYSFYDDRQKRKELEYFGLSAAILDKNFRKAYDYIRVMVMENVNKPQLWNIFNQVTMHSQDVRHHRFCLRLMLKNPDNHALCVLNGHNAFVSGSFKHALGQYVQAFRAYPSEPLYNLCIGLTFIHMASQKYVLKRHALTVQGFSFLNRYLSIRGPCQESFYNLGRGLHQLGLTHLAIHYYQKALALPPLVVEGIEVDQLDLRRDIAYNMSLIYQSSGNTAMAQKLLYTYCVI
B2: laminB1 (endogenous, mouse ESCs) (protein, UniProt P14733 1-588)
chain: MATATPVQQQRAGSRASAPATPLSPTRLSRLQEKEELRELNDRLAVYIDKVRSLETENSALQLQVTEREEVRGRELTGLKALYETELADARRALDDTARERAKLQIELGKFKAEHDQLLLNYAKKESDLSGAQIKLREYEAALNSKDAALATALGDKKSLEGDLEDLKDQIAQLEASLSAAKKQLADETLLKVDLENRCQSLTEDLEFRKNMYEEEINETRRKHETRLVEVDSGRQIEYEYKLAQALHEMREQHDAQVRLYKEELEQTYHAKLENARLSSEMNTSTVNSAREELMESRMRIESLSSQLSNLQKESRACLERIQELEDMLAKERDNSRRMLSDREREMAEIRDQMQQQLSDYEQLLDVKLALDMEISAYRKLLEGEEERLKLSPSPSSRVTVSRASSSRSVRTTRGKRKRVDVEESEASSSVSISHSASATGNVCIEEIDVDGKFIRLKNTSEQDQPMGGWEMIRKIGDTSVSYKYTSRYVLKAGQTVTVWAANAGVTASPPTDLIWKNQNSWGTGEDVKVILKNSQGEEVAQRSTVFKTTIPEEEEEEEEEPIGVAVEEERFHQQGAPRASNKSCAIM
B3: TFIIIC63 (endogenous, mouse ESCs) (protein, UniProt Q8R2T8 1-520)
chain: MAAAEPDADPKAAIPVDLRRERRLVCVEYPGVVRNEAKMLQTLGGEESVSRIYTDPTKRLELYFRPKDPYCHPVCANRFSTSSLLLRIRKRTRRRRGVLGDEAHPQVTFNLEIIGIISTIYKFQGMSDFQYLAVHTEAGGKHVSMYDRVLMRKPEKEEFFHQELPLYIPPPIFSRLDTPVDYFYRPETQHREGYHNPTISGENLIGLSRARRPHNAIFVNFEDTEVPEQPLEAAVQTWKKACTNPIDQKVEEELRKLFDIRPVWSRNAVKSNVSVHPDKLKILLPYMAYYMITGPWRSLWIRFGYDPRKHPDAKIYQVLDFRIRCGMKYGYGSRDMPVKAKRSTYNYSLPITVKKTSNQPGTMHDLKQGLGPSGTDGPRKLTYNKYKLKDSVYIFREGALPPYRQMFYQLCDLNVEELQKIVHRNDGTETVCTERDGWCLPKTTDHLRDTMSLMILQTIRSERPALFSNTGKADRGKEQLMFESGEEEEEEEEEEEEEEEDFKPSDGSENEMETEILDYV
B4: TFIIIC90 (endogenous, mouse ESCs) (protein, UniProt Q8BMQ2 1-817)
chain: MSEADQALVGPKADEPSPPAEEKDEGGGKEAAADAAPGPSASFRLMVTRREPAVKLQYAVSGLEPLSWSEDHRVSVSTARSVAVLELICDVHNPGQDLVIHRTSVPAPLNSCLLKVGSKTEVAECKEKFASSKDPTISQTFMLDRMFNPEGKALPPMRGFKYTSWSPMGCDANGRCLLAALTMDNRLTVQVNLNRLQWVQLVDLTEIYGDRLYETSYRLSKNEAPEGNLGDFAEFQRRHSMQTPVRMEWSSICTTQQVKHNNECRDVSSVLLAVLFENGNIAVWQFQLPFVGKESISSCNTIESGISSPSVLFWWEYEHNNRKMSGLIVGSAFGPVKILPVNLKAVKGYFTLRQPVVLWKEMDKLPVHSIKCVPLYHPYQKCSCSLVVAARGSYVFWCLLLISKAGLNVHNSHVTGLHSLPIVSITADKQNGTVYTCSSDGKVRQLIPIFTDVALKFEHQLIKLSDVFGSVRTHGIAVSPCGAYLAIITTEGMMNGLHPVNKNYQVQFVTLKTFEEAAAQLLESSVQNLFKQVDLIDLVRWKILKDKHIPQFLHEALEKKIESSGVTYFWRFKLFLLRILYQSMQKSPSEALWKPTHEDSKILLVDSPGMGDGEDEQQEEGTSKQGTKAGLQEKSKEGDTEETPEDSLTAGGDTGGREPVEEKLLEIQGKIEAVEMHLTREHMKRVLGEVYLHTWITENTSIPTRGLCNFLMSDEDYDDRTAQVLIGHISKKMNKQTFPERCSLCKEILPFTDRKQAVCSNGHIWLRCFLTYQSCQSLIYRRCLLHDSIARHPVPEDPDWIKRLLQSPCPFCDSPVF
B5: SMC1A (endogenous, mouse ESCs) (protein, UniProt Q9CU62 1-1233)
chain: MGFLKLIEIENFKSYKGRQIIGPFQRFTAIIGPNGSGKSNLMDAISFVLGEKTSNLRVKTLRDLIHGAPVGKPAANRAFVSMVYSEEGAEDRTFARVIVGGSSEYKINNKVVQLHEYSEELEKLGILIKARNFLVFQGAVESIAMKNPKERTALFEEISRSGELAQEYDKRKKEMVKAEEDTQFNYHRKKNIAAERKEAKQEKEEADRYQRLKDEVVRAQVQLQLFKLYHNEVEIEKLNKELASKNKEIEKDKKRMDKVEDELKEKKKELGKMMREQQQIEKEIKEKDSELNQKRPQYIKAKENTSHKIKKLEAAKKSLQNAQKHYKKRKGDMDELEKEMLSVEKARQEFEERMEEESQSQGRDLTLEENQVKKYHRLKEEASKRAATLAQELEKFNRDQKADQDRLDLEERKKVETEAKIKQKLREIEENQKRIEKLEEYITTSKQSLEEQKKLEGELTEEVEMAKRRIDEINKELNQVMEQLGDARIDRQESSRQQRKAEIMESIKRLYPGSVYGRLIDLCQPTQKKYQIAVTKVLGKNMDAIIVDSEKTGRDCIQYIKEQRGEPETFLPLDYLEVKPTDEKLRELKGAKLVIDVIRYEPPHIKKALQYACGNALVCDNVEDARRIAFGGHQRHKTVALDGTLFQKSGVISGGASDLKAKARRWDEKAVDKLKEKKERLTEELKEQMKAKRKEAELRQVQSQAHGLQMRLKYSQSDLEQTKTRHLALNLQEKSKLESELANFGPRINDIKRIIQSREREMKDLKEKMNQVEDEVFEEFCREIGVRNIREFEEEKVKRQNEIAKKRLEFENQKTRLGIQLDFEKNQLKEDQDKVHMWEQTVKKDENEIEKLKKEEQRHMKIIDETMAQLQDLKNQHLAKKSEVNDKNHEMEEIRKKLGGANKEMTHLQKEVTAIETKLEQKRSDRHNLLQACKMQDIKLPLSKGTMDDISQEEGSSQGEESVSGSQRTSSIYAREALIEIDYGDLCEDLKDAQAEEEIKQEMNTLQQKLNEQQSVLQRIAAPNMKAMEKLESVRDKFQETSDEFEAARKRAKKAKQAFEQIKKERFDRFNACFESVATNIDEIYKALSRNSSAQAFLGPENPEEPYLDGINYNCVAPGKRFRPMDNLSGGEKTVAALALLFAIHSYKPAPFFVLDEIDAALDNTNIGKVANYIKEQSTCNFQAIVISLKEEFYTKAESLIGVYPEQGDCVISKVLTFDLTKYPDANPNPNEQ

No constants are given. Whether binding was seen depends on the method and setting. In cells and extracts the contact can be indirect. Some entries that bind do so weakly or less than the wild type.

This experiment deals with T1, SMARCAD1 (endogenous, mouse ESCs) (mouse (endogenous in 46C ESCs)). The experiment is described as follows: co-IP; endogenous proteins from 46C mouse ESC nuclear extract (antibodies to SMARCAD1, TFIIIC63 or TFIIIC90); ethidium bromide and benzonase present; Western blot. A general note: A western blot detects proteins with antibodies after separation by electrophoresis.
Regarding “SMC3 (endogenous, mouse ESCs) (from UniProt Q9CW03 1-1217)”, the binding result is listed as “binds”.

Regarding “TFIIIC220 (endogenous, mouse ESCs) (from UniProt Q8K284 1-2101)”, the binding entry was “binds”. The result for B1 reads “binds”. Regarding B2, the binding entry was “binds”. As for B3, the entry is “binds”; as for B4, “binds”; as for B5, “binds”.
